Each structure is given as a SMILES string. The whole screen tested about 52,000 compounds, of which about 1,700 (3.3%) were called active. No stated cut-off is given here; in the data, active means survival mostly below about 52% (no sharp cut-off); inactive means mostly above about 56%. The list shows a part of the results.

The subject of this test is Wild type. As to the kind of experiment: S. aureus survival, RN4220 and DeltatarO strains – OD600, teichoic acid synthesis inhibitors, primary screen (AID 463173). To be noted: S. aureus RN4220 wild type/DeltatarO growth, OD600, 18 h, stronger effect = lower value, screened at 18.75 µg/mL (by protocol).
For the compound `CCn1c(=N)c(C(=O)NCc2ccccc2)cc2c(=O)n3cccc(C)c3nc21`, the survival is inactive: 74%.
`COc1ccc(-n2nnnc2C2CCN(S(=O)(=O)c3ccc(NC(C)=O)cc3)CC2)cc1`: the survival was inactive: 85%.
Take `Cc1cccc(-c2nc(C)c(CCNC(=O)C(=O)Nc3ccccc3C#N)s2)c1`: the survival was inactive: 100%.
Turning to `COc1ccc(NC(=O)CCc2c(C)nn(-c3ccc(N4CCCCC4)nn3)c2C)cc1Cl`, the survival was inactive: 85%.
For the compound `CCn1c(C(=O)N2CCC(C(=O)NCCc3ccc(C)cc3)CC2)cc2sccc21`, the survival is inactive: 89%.
As for `Cc1ccc(Cn2ccnc2SCC(=O)NCc2ccccc2Cl)cc1`, the figure is inactive: 74%; as for `N#Cc1c(C(F)(F)F)cc(-c2ccc(F)cc2)nc1SCC(=O)Nc1ccccc1`, inactive: 78%.
For the compound `Cc1ccccc1NC(=O)CSc1nc2ccccc2c2nc(CCn3cncc3C)nn12`, the survival is inactive: 74%.
As to `CCOC(=O)c1ccc(N2C(=O)c3n[nH]c(-c4ccco4)c3C2c2cccc(OC)c2)cc1` (stereo unspecified), the survival was inactive: 60%.
`COC(=O)c1ccc2c(=O)n(CCCCCC(=O)NCCc3ccc(Cl)cc3)c(=O)[nH]c2c1`: the survival is inactive: 64%.
`COCCCNC(=O)c1ccc(-c2nc(CS(=O)(=O)c3ccc(C)cc3)c(C)o2)cc1`: the survival was inactive: 78%.
For `Cc1oc(-c2ccc(C(=O)NCc3cccc(F)c3)cc2)nc1COc1ccccc1`, the survival was inactive: 112%.
The figure for `CCOC(=O)C1CCCN(C(=O)c2ccc3c(c2)sc2nc(-c4ccc(CC)cc4)cn23)C1` (stereo unspecified) is inactive: 64%; for `Cc1ccc(CNC(=O)C(C)n2nc(C)n3c(cc4sccc43)c2=O)cc1` (stereo unspecified) it is inactive: 94%; for `CCn1c(SCC(=O)c2ccc(Br)cc2)nnc1-c1ccncc1` it is inactive: 104%.
As for `CCOc1ccc(S(=O)(=O)NC(=O)N(CC)Cc2cc3ccccc3o2)cc1`, the survival is inactive: 110%.
`COc1ccccc1C(=O)Nc1cccc(C(=O)OCc2cc(=O)n3ccsc3n2)c1`: the survival is active: -6%.
Consider `Cc1ccc(S(=O)(=O)N(CC(=O)Nc2ccc(Cl)cc2Cl)c2ccccc2C)cc1`, for which the survival was inactive: 82%.
As for `COc1cccc2c1cc1c(=O)n(CC(=O)N3CCN(c4ccccc4)CC3)nc(C)n12`, the figure is inactive: 91%; as for `O=C(CCS(=O)(=O)c1ccc(Br)cc1)Nc1ccc(F)cc1F`, inactive: 53%.
On to `CCc1ccc(CNc2ccc3c(c2)ncn3C(C)(C)C)cc1`, for which the survival was active: -16%.
Consider `Cc1ccc(-c2nc3ncccn3c2Nc2ccc3c(c2)OCCO3)cc1`, for which the survival was inactive: 77%.
`Cc1cccc(NS(=O)(=O)c2ccc3c(c2)CC(C)N3C(=O)C2CCC2)c1C` (stereo unspecified): the survival was inactive: 74%.
Consider `CCc1nc2ccc(C(=O)NCc3cc(OC)ccc3OC)cc2nc1CC`, for which the survival is inactive: 135%.
As for `O=C1CC(c2nc(-c3ccccc3)no2)CN1c1ccccc1` (stereo unspecified), the survival is inactive: 19%.
In the case of `CCOc1ccc(N2CC(c3nc4ccccc4n3CCOc3ccccc3OC)CC2=O)cc1` (stereo unspecified), the survival is inactive: 34%.
In the case of `Cc1cccc2sc(N(CCN(C)C)C(=O)c3ccc4c(c3)OCCO4)nc12`, the survival was inactive: 131%.
`COc1ccc(Cn2c(=O)n(Cc3ccco3)c(=O)c3oc4ccccc4c32)cc1`: the survival was inactive: 91%.
For `CCOc1ccc(CCNC(=O)CS(=O)(=O)Cc2nc(-c3ccc(OC)cc3)oc2C)cc1`, the survival was inactive: 88%.
As for `COc1ccc(-c2nc(CSCC(=O)N3CCN(c4cc(Cl)ccc4C)CC3)c(C)o2)cc1`, the figure is active: -1%; as for `CCN(CC)c1ccc(NC(=O)c2cnn(-c3ccccc3)c2-n2cccc2)c(C)c1`, inactive: 127%; as for `Cc1ccc(Cn2c(C)c3cnn(CC(=O)NCc4ccccc4)c(=O)c3c2C)cc1`, inactive: 132%.
As to `CC(=O)N1CCc2cc(S(=O)(=O)CCC(=O)Nc3ccc(C)cc3Br)ccc21`, the survival was inactive: 83%.
On to `Cc1cc(OC(C)C(=O)Nc2cccc(-c3nc4ccccc4o3)c2)cc(C)c1Cl` (stereo unspecified), for which the survival was inactive: 55%.
On to `O=C(NCCCN1CCCCCC1)c1ccc2c(c1)sc1nc(-c3ccccc3)cn12`, for which the survival was inactive: 38%.
Take `COc1ccc(-c2nc(CS(=O)(=O)CC(=O)NCc3ccccc3Br)c(C)o2)cc1`: the survival was inactive: 60%.
Consider `Cc1ccc(CNC(=O)CCCn2c(=O)c3ccccc3n(CC(=O)Nc3ccc(C)cc3)c2=O)cc1`, for which the survival is inactive: 72%.
With `CCC(C(=O)Nc1ccc(C)c(C)c1)n1c(=O)c(C(F)(F)F)nc2ccccc21` (stereo unspecified), the survival is inactive: 101%.
Take `CCOc1ccc(NC(=O)CCc2c(C)nn(-c3ccc(N4CCCC4)nn3)c2C)cc1`: the survival is inactive: 110%.
For `Cc1nc2cc(-c3ccccc3)nn2c(C)c1CCC(=O)Nc1ccc(F)cc1F`, the survival was inactive: 79%.
As for `Cc1ccc(CNC(=O)CS(=O)(=O)c2cccc3nsnc23)cc1`, the figure is inactive: 135%; as for `CCOC(=O)c1c(NC(=O)COc2ccc(Cl)cc2C)sc2c1CCCCC2`, inactive: 80%; as for `COc1ccccc1C(O)(C(=O)NNc1cccc(Br)n1)c1ccccc1OC`, inactive: 106%.
As for `COc1cccc(NC(=O)Cn2c(=O)n(CCC(=O)NCCc3ccc(Cl)cc3)c(=O)c3ccccc32)c1`, the survival was inactive: 105%.
Take `CC(C)(C)c1ccc(C(=O)NC2CCSC2=O)cc1` (stereo unspecified): the survival was inactive: 111%.
As to `COc1ccc(CCNC(=O)Cc2c(C)c3cc4c(C(C)(C)C)coc4c(C)c3oc2=O)cc1`, the survival is inactive: 98%.
For `Cc1ccc(C)c(Nc2cc(C(=O)NC3CCCC3)c3ccccc3n2)c1`, the survival is inactive: 93%.
Regarding `COc1ccc(NC(=O)CC2C(=O)N(c3ccc(OC)cc3)C(=O)N2CCC2=CCCCC2)cc1` (stereo unspecified), the survival is inactive: 71%.
As to `Cc1ccc(CNC(=O)c2cc3c(=O)n(Cc4ccco4)ccc3nc2C)cc1`, the survival was inactive: 79%.
As to `COc1cc(-c2noc(-c3ccc(NCC4CCCO4)c([N+](=O)[O-])c3)n2)cc(OC)c1OC` (stereo unspecified), the survival was inactive: 87%.
As for `COC(=O)c1ccc(CO)nc1`, the figure is inactive: 101%; as for `COc1cc(NC(=O)CSc2nc3ncccc3o2)cc(OC)c1`, inactive: 57%; as for `O=C1c2cc(OCCN3CCOCC3)ccc2-c2ccc(OCCN3CCOCC3)cc21`, inactive: 95%.
Turning to `COc1cc(NC(=O)CN2CCN(c3ccc(F)cc3)CC2)cc(OC)c1`, the survival was inactive: 99%.
As for `CCn1cc2nc(SCC(=O)Nc3cc(OC)cc(OC)c3)n(Cc3ccc(Cl)cc3)c(=O)c2n1`, the survival was inactive: 98%.
As for `Cc1ccc2oc(-c3ccc(NC(=O)CCC(=O)O)cc3)nc2c1`, the figure is inactive: 65%.

The record behind these values is PubChem BioAssay AID463173 (ICCB-Longwood Screening Facility, Harvard Medical School, 2010).
